Assay results as given in PubChem BioAssay (NCI).
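Exposure lasted 48 hours, with cells grown in 96-well plates and compounds tested at five concentrations. GI50 is the concentration that inhibits growth by half. Definition used: TGI = concentration required for complete inhibition of growth.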

Tested on: NCI-H322M lung
Assay: inhibition of tumour cell growth, NCI panel, 48 h

Compared with `O=C(CSc1nnc(-c2ccc(-c3nc4ccc(Cl)cc4[nH]3)cc2)o1)Nc1ccccc1`, `COc1ccc(-c2cc(C(=O)N=Nc3c(O)[nH]c4ccc(Br)cc34)c3ccccc3n2)cc1` is 3.6-fold higher in GI50: 3.98 µM for the first, 14.4 µM for the second.

Going from `CCOC(=O)c1ccc(NC(=S)NC(=O)c2ccc(NC(=O)C(C)C)cc2OC)cc1` to `COc1ccc2[nH]c(O)c(N=NC(=O)COc3ccc(NC(=O)Nc4ccc(Cl)cc4)cc3)c2c1`, the GI50 falls from 22.2 µM to 10.3 µM (2.2-fold).

First: CCOc1ccc2ncc(C#Cc3cncc(C(=O)Nc4ccc(CN5CCN(C)CC5)c(C(F)(F)F)c4)c3)n2n1
Second: CC[C@]12C=CCN3CC[C@@]4(c5ccc(OC)cc5N(C)[C@H]4[C@@](O)(C(=O)OC)[C@@H]1OC(=O)CCCC[P+](C1CCCCC1)(C1CCCCC1)C1CCCCC1)[C@@H]32
The GI50 of the first is 3.7-fold lower: 1.45 µM for the first, 5.3 µM for the second.

Going from `O=C(CSc1nnc(-c2ccc(-c3nc4ccc(Cl)cc4[nH]3)cc2)o1)Nc1ccccc1` to `COc1ccc(-c2cc(C(=O)N=Nc3c(O)[nH]c4ccc(Br)cc34)c3ccccc3n2)cc1`, the TGI rises from 18.7 µM to 29.6 µM (1.6-fold).

Compared with `CCOC(=O)c1ccc(NC(=S)NC(=O)c2ccc(NC(=O)C(C)C)cc2OC)cc1`, `COc1ccc2[nH]c(O)c(N=NC(=O)COc3ccc(NC(=O)Nc4ccc(Cl)cc4)cc3)c2c1` is lower in TGI: greater than 100 µM for the first, 30.8 µM for the second.

`CCOc1ccc2ncc(C#Cc3cncc(C(=O)Nc4ccc(CN5CCN(C)CC5)c(C(F)(F)F)c4)c3)n2n1` and `CC[C@]12C=CCN3CC[C@@]4(c5ccc(OC)cc5N(C)[C@H]4[C@@](O)(C(=O)OC)[C@@H]1OC(=O)CCCC[P+](C1CCCCC1)(C1CCCCC1)C1CCCCC1)[C@@H]32` are within 1.5-fold of each other in TGI: 16.5 µM for the first, 18.4 µM for the second.
